{
  "source": "the DeepSol protein solubility set",
  "assay": "soluble on expression in E. coli; label from the status in PepcDB or PDB records",
  "data": [
    {"sequence": "GNEEETNNYTPVDNQSNSTSEIILQERNSSLPRVWSKKTAQRVTTRASFTDATDFLGCSYAVENGTSIIGDFANAKYPVVNMKKLLERYPSYINPKELRTTETKALSYSDFDRLEKNKTFTKTVKSGFSLNLGPFKFGRQKTIKETFVHNTDDSEKVVHGELSIEVVNGMLNLQTAPSALRKIAADYLDELFVDALYNSSMVELMQSYGEFVLTGYYTGGRASALFYGVDTNSIQFDSKEKDMDVAINASYEWKNKKPTAPSDTIHSASGNLSIGTKRENSETITNKFSALSYSIKTLGGAYGYSISTPPYDITNYSIDLTPWLQSLNDPKTHTMIDLQDGGLYPISDFILEENFKQRYNDTHMDFQYQESLEEPYIEIIKMYIRKSNSGEKLYDIVPVLNTRQGDKLIFSNPDAASQSDEELKANSIPATFLTKSNAIKDEKSKYYQLKIKADPNKTINPIIQTTLSFQINNVDEKGMYKFKNANTNIWYIYNPTSMYCFAYYDDDYIPDAYGILDWVNGIPIKAVTMTTLYQRYKIYGL", "values": [
      {"measurement": "soluble on expression in E. coli", "result": "soluble"}
    ]}
  ]
}
